# Measurements taken from PubChem BioAssay AID485297 (National Center for Advancing Translational Sciences (NCATS), 2010).
# The campaign covered roughly 320,000 compounds. About 9,100 (2.8%) were called active. The shares of active, inactive and inconclusive entries below differ from those in the screen. Calls follow the shape of the dose curve; as a rule, active = well fitted activation curve with a large enough effect; inconclusive = small, poorly fitted or top-dose-only effect; inactive = no such curve, though single readings can be large or run the other way. Potencies of inconclusive entries are left out as doubtful fits.
# Assay: qHTS Assay for Rab9 Promoter Activators; also: nearly all actives have a fitted effect of over 60% in size; as to activation, negative = inhibition: % of control where 0% means no effect
# Conditions: Huh7 Rab9 promoter-luciferase reporter, luminescence, 24 h; series mostly up to 9.22 µM; activation, negative = inhibition: at the top concentration
# Procedure, shortened: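 Quantitative HTS format; Huh7 Rab9-luciferase reporter cells (1500/well) receive compound 2 h post-plating, incubate 24 h at 37 °C, then get luciferase reagent for 10 min before luminescence reading.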
# Potency is read from the fitted curve at half-maximal effect; tags tell the direction and shape of the fitted curve.
Structure (SMILES),"activation, negative = inhibition",Potency
CCCC/C(O)=C1\C(=O)CCCC1=NCCc1c(C)[nH]c2ccccc12,inactive: -13.7%,
Cc1ccc(C2CC(c3cccc(NS(C)(=O)=O)c3)=NN2S(C)(=O)=O)cc1 (stereo not given),,"inconclusive [activator, partial curve]"
COC(=O)c1ccc(C(=O)OC)c(NC(=O)C2CCCO2)c1 (stereo not given),inactive: 9.16%,
CCc1ccc(NC(=O)CSc2nnnn2C)cc1,,"inconclusive [activator, partial curve]"
CC(=O)N1CCN(C(=O)CSc2nnc(C)n2-c2ccccc2)CC1,inactive: -1.99%,
Cc1cc(OCc2cc(C(=O)N(C)Cc3ccccn3)no2)cc(C)c1Cl,,active: 3.98 µM
O=C(Nc1nnc(S(=O)(=O)N2CCOCC2)s1)c1ccccc1,,"inconclusive [activator, partial curve]"
CCOC(=O)N1CCN(C(=O)CSCC(=O)Nc2nc(-c3ccc(-c4ccccc4)cc3)cs2)CC1,,"inconclusive [activator, single point]"
OC(COc1ccc(Cl)cc1)CSc1ccccn1 (stereo not given),,"inconclusive [activator, single point]"
Cc1ccc(C2=N/C(=C\N3CCCCC3)C(=O)O2)cc1,,active: 1.12 µM
COC(=O)c1c(C)[nH]c(C(=O)/C=C/c2ccccc2F)c1C,,active: 1 µM
COc1cccc(C(=O)Nc2nnc(SCC(=O)NC3CC3)s2)c1,,"inconclusive [activator, partial curve]"
NC(=O)c1ccccc1OCc1nc2ccccc2s1,,"inconclusive [activator, partial curve]"
Cc1ccc(C(=O)OCC(=O)c2ccc[nH]2)s1,,"inconclusive [activator, single point]"
O=C(NCc1ccco1)c1cc2c(s1)CCCCC2,,active: 1.58 µM
O=C(NCCc1ccc2c(c1)OCCO2)c1ccccc1F,inactive: 29.2%,
COc1cccc(C(=O)Nc2c(F)cccc2F)c1,inactive: 19%,
COCCn1c(C)cc(C(=O)CSc2nnnn2C2CCCC2)c1C,,"inconclusive [activator, full curve, poor fit]"
CCNc1ccccc(-c2ccc3ccccc3n2)c1=O,,"inconclusive [activator, single point]"
COc1ccc(OCc2cc(C(=O)N(C)CC3CCCCO3)no2)c(Cl)c1 (stereo not given),,"inconclusive [activator, single point]"
O=C(CCn1c(=O)oc2ccccc21)Nc1ccc2c(c1)OCCO2,,"inconclusive [activator, partial curve]"
CC(=O)Nc1cccc(NC(=O)c2ccc(COc3ccccc3)cc2)c1,,active: 2.82 µM
Fc1ccccc1N=C1NN=C(c2ccccc2)CS1,,"inconclusive [activator, single point]"
CCOc1ccc(/C=N/NC(=O)c2cc3c(OC)cc(OC)c(OC)c3[nH]2)cc1,inactive: -5.14% [at 1.84 µM],
c1ccc(C2=NNC(=NCc3ccc4c(c3)OCO4)SC2)cc1,,"inconclusive [activator, single point]"
CC1CCN(c2ccc(-c3cccc(NC(=O)c4ccco4)c3)nn2)CC1,,active: 1 µM
CC(=O)c1sc2nsc(SCCN3CCOCC3)c2c1N,inactive: 16.3%,

Structure (SMILES),"activation, negative = inhibition",Potency
Cc1nn(-c2ccccc2)c(C)c1C(=O)OCC(=O)Nc1ccccc1F,,active: 2.24 µM
CCOc1ccc(NC(=O)CSc2nccn2Cc2ccco2)cc1,,"inconclusive [activator, single point]"
O=C(N/N=C/c1ccccc1)c1ccc(N2CCOCC2)c([N+](=O)[O-])c1,inactive: -3.38%,
CN(C)S(=O)(=O)c1cccc(NC(=O)c2cc(-c3cccs3)nn2-c2cccc(Cl)c2)c1,inactive: -0.141%,
O=C(NCc1ccco1)c1cccc(-c2nnc(-c3ccccc3)o2)c1,inactive: 23.8%,
CCn1c(C)cc(O)c(C(=O)Nc2cccc(Cl)c2)c1=O,,"inconclusive [activator, single point]"
O=S(=O)(c1cnc(Cl)c(Cl)c1)N1CCN(c2ncccn2)CC1,inactive: -1.76%,
COc1cc(NC(=O)c2ccc3c(SCC(=O)O)c4c(nc3c2)CCC4)cc(OC)c1OC,inactive: 0.414%,
Nc1ccc(-c2nc3ncccc3o2)cc1,,"inconclusive [activator, partial curve]"
COc1ccc(CN(C(=O)/C=C/c2ccco2)C2CCS(=O)(=O)C2)cc1OC (stereo not given),inactive: 0.305%,
Fc1cc(F)cc(NC(=S)NN2CCOCC2)c1,,"inconclusive [activator, single point]"
COc1ccccc1CC(=O)N(Cc1ccccc1)c1ccc(C)cc1,inactive: 0.294%,
O=C(CNC1CCCCC1)Nc1ccc(Cl)cc1,inactive: -0.278%,
O=C(c1cc(F)c(F)c(F)c1F)N1CCN(Cc2ccc3c(c2)OCO3)CC1,inactive: -0.423%,
Cc1nc(NC(=O)CN2CCOCC2)sc1-c1ccccc1,,"inconclusive [activator, partial curve]"
COc1ccc(Nc2cccc(Cl)c2)c(C(=O)O)c1,inactive: -1.89%,
COc1ccc(NS(=O)(=O)c2cccc(C(=O)N/N=C/c3ccc(O)cc3)c2)cc1,inactive: -0.038%,
Nc1c(C(=O)Nc2ccc(Cl)c(C(=O)O)c2)sc2nc3c(cc12)CCCC3,,"inconclusive [activator, single point]"
CCOc1ccc(-c2cn3ccccc3n2)cc1,,"inconclusive [activator, partial curve, poor fit]"
Cc1nc(C)c(C(=O)Nc2ccccc2)s1,,"inconclusive [activator, partial curve]"
CCCn1c(SCC(=O)N2c3ccccc3CC2C)n[nH]c1=O (stereo not given),inactive: -7.1%,
COCCN(C(C)=O)c1nnc(-c2ccccn2)s1,,"inconclusive [activator, single point]"
O=C(NCc1ccccn1)Nc1ccc(Br)cc1Cl,,"inconclusive [activator, partial curve]"
COCCNC(=O)c1ccc(-c2csc(C)n2)cc1,,"inconclusive [activator, partial curve]"
O=C(Nc1nccs1)c1ccc2ccccc2n1,,"inconclusive [activator, single point]"
CCCCc1n[nH]c2c1/C(=N/O)CC(c1ccccc1)C2 (stereo not given),inactive: 11.8%,
O=C(c1cnn2ccccc12)N1CCc2ccccc21,,active: 1.78 µM

Structure (SMILES),"activation, negative = inhibition",Potency
O=C(/C=C/c1ccc(F)cc1)N1CCCc2ccccc21,,"inconclusive [activator, single point]"
O=S(=O)(NCC1CCCO1)c1ccccc1F (stereo not given),inactive: -1.55%,
C=CCOC(=O)/C(=C\c1ccccc1)NC(=O)c1ccc(C)cc1,,"inconclusive [activator, single point]"
COc1ccc(-c2ccc(-c3noc(-c4ccco4)n3)c(OC)n2)cc1,,"inconclusive [activator, single point]"
CCCc1ccc2oc(C(=O)N3CCNC(=O)C3CC(=O)OC)c(C)c2c1 (stereo not given),inactive: -3.96%,
COC(=O)c1ccc(-n2nnnc2SCC(=O)N2CCCCC2)cc1,inactive: -3.09%,
O=C(CSc1nnnn1Cc1ccccc1)c1ccccc1,,"inconclusive [activator, partial curve]"
COc1ccc(CN2C(=NC(=O)C3CCCCC3)SC3CS(=O)(=O)CC32)cc1 (stereo not given),inactive: -1.03%,
CCOC(=O)c1ccc(N=NN(C)C)cc1,,"inconclusive [activator, partial curve]"
Nc1c(C(=O)Nc2ccc3c(c2)OCCO3)nnn1Cc1cccc(F)c1,,active: 3.16 µM
Nc1nc2ccc(NC(=O)c3ccco3)cc2s1,,"inconclusive [activator, partial curve]"
Fc1ccc(-c2nnc(-c3ccc(Cl)cc3Cl)o2)cc1,,active: 0.316 µM
COc1ccc(COC(=O)N/N=C/c2cccs2)cc1,,"inconclusive [activator, partial curve]"
Cc1ccc(SCc2nc3ccccc3[nH]2)cc1,,"inconclusive [activator, partial curve]"
S=C(NCCc1ccccc1)Nc1cnc2ccccc2c1,,"inconclusive [activator, single point]"
COc1ccc(-c2nnc(SCc3nc4ccccc4s3)n2C(C)C)cc1,,"inconclusive [activator, partial curve]"
CCC(C)(C)NC(=O)CN(C(=O)C(=O)Nc1ccc2c(c1)OCCO2)C1CC1,inactive: 8.15%,
O=C(Nc1ccc(F)cc1)Nc1nnc(-c2ccco2)s1,,active: 2.82 µM
Cc1nc(NC(=O)CSc2ccc(-c3nc4ccccc4[nH]3)cn2)sc1C,,"inconclusive [activator, partial curve]"
Cc1ccc(OCCCCn2ccnc2C)c(C)c1,inactive: -6.91%,
COc1ccc2cc(C(N)=O)c(=Nc3ccc(C)cc3)oc2c1,,"inconclusive [activator, single point]"
COc1ccc(-c2cc(C(=O)N3CCCCCC3)no2)cc1OC,,"inconclusive [activator, partial curve]"
COc1ccc(/C(N)=N/OC(=O)c2ccc3c(c2)OCO3)cc1,,"inconclusive [activator, single point]"
COc1ccccc1OCC(=O)Nc1ccc2c(c1)OCCO2,,"inconclusive [activator, single point]"
O=c1sc(/C=N/Nc2ccccc2)c(Cl)n1Cc1ccccc1,,"inconclusive [activator, single point]"
COc1ccc(N=C2SC(CC(=O)Nc3ccccc3)C(=O)N2Cc2ccco2)cc1 (stereo not given),inactive: 3.4%,
